First the molecules themselves.
T1: UNK ZnF1-6 (called full-length) (human, UniProt Q9C0B0 30-357)
T1 sequence: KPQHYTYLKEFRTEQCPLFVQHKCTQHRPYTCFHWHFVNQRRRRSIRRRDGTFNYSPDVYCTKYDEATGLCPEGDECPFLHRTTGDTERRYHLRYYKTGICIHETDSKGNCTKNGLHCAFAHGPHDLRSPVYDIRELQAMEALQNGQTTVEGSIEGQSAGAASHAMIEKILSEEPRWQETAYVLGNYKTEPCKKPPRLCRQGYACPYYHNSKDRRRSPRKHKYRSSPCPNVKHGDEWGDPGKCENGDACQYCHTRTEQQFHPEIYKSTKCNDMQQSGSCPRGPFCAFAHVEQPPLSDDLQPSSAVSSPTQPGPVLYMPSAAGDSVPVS

B1: chr2:224470697:224470798:-|3pUTR|ENSG00000036257|msi1|total|mutant (ssRNA)
RNA: GGGAGUUCUACAGUCCGACGAUCUGUGACAAACUAAAGUUAAUACAUGAAGCAUUGCAAUAUGGAAUUUUGCACAUUUUUGUCCGCUUUACAUUAUUUGCUGAUACCAACUUUUGGCCGGAAGGAAAACAGGGAAGGUGAUUGCAACAGAGGAUUGAGCAUCA
B2: chr20:4701031:4701132:+|3pUTR|ENSG00000171867|msi1|total|mutant (ssRNA)
RNA: GGGAGUUCUACAGUCCGACGAUCCACCGUUUCUGUAAUUGGCUUUUGAAUCAAAGAACCGGGAGACAAUCUAAAAAAUAUCUCCGGUUGGAGAUGACAGAAAUAUGAUUGAUUUGAAGUGGAAAAAGAAAUUCUGUUAAUGUUCAACAGAGGAUUGAGCAUCA
B3: ENSG00000136451:be:win_2201|3pUTR|ENSG00000136451|bound_else_gene|NA|bound_elsewhere_windowed (ssRNA)
RNA: GGGAGUUCUACAGUCCGACGAUCAUUGUGACCUGAUAUUUGGAGAUGUAAAUAUUGCUCAGCAUAUUAAUCCCGAUGGAAUAUAGCAUUGUAGUUGACUUUUUAAAAAAAAAAAAAAUUUAAAAAAAAUCUACAAAUUGUGUUCAACAGAGGAUUGAGCAUCA
B4: chr2:219567275:219567376:-|CDS|ENSG00000124006|msi1|total|mutant (ssRNA)
RNA: GGGAGUUCUACAGUCCGACGAUCUGUGUGCCCUCCGAGGGUGACUACCGCUUCCGCAUCUGCACAGUCAGCGGACAUGGCCGCCGUCCCCACGUGGUGUUCCACGGUUCUGCUCACCUUGGUGAGUUGGUCCUGCCAGACCCACAACAGAGGAUUGAGCAUCA
B5: chr1:151048051:151048152:+|CDS|ENSG00000143443|unk|total|mutant (ssRNA)
RNA: GGGAGUUCUACAGUCCGACGAUCGACCGCCUGGCUGGACCAGCGGCUGCCGAGCUCUUGGCCGCCACGGUGUCCACCGGCUUCCGCCGGUCGUCCGCCAUUAACGAGGAGGAUGGGUCUUCAGAAGAGGGGGUUGUGAUUAAUCAACAGAGGAUUGAGCAUCA
B6: chr7:100033925:100034026:+|CDS|ENSG00000106261|msi1|total|mutant (ssRNA)
RNA: GGGAGUUCUACAGUCCGACGAUCCAGAGCUCGGACCUCACCAAGCAUCAGAGAAUUCACACGGGGGAGAAACCCUAUGAAUGCCGUGAAUGUGGAAAAGCUUUCAACCGAAACUCAUACCUGAUUUUGCAUCGGAGAAUUCACCAACAGAGGAUUGAGCAUCA
B7: chr6:108211900:108211976:-|3pUTR|ENSG00000112335|msi1_unk|total|mutant (ssRNA)
RNA: GGGAGUUCUACAGUCCGACGAUCGUUGACAAGAAGUUAAUUUGCUUCCGUAAAAAUCCCUCAUUCCAGCCUUUCUAUAUAAACCGCUCUUUCUUGCUGUUUUAAUGUGGUGCACACUACCGCCUCACAAACCUGUUAUUCCAGCAACAGAGGAUUGAGCAUCA
B8: chr1:53952023:53952124:+|CDS|ENSG00000116212|msi1|FALSE|unique (ssRNA)
RNA: GGGAGUUCUACAGUCCGACGAUCUACAUGCGAGAAAAUGGGCAGCUGCACAUGGUCAAUCUGGCUCUGGAUGGUGUCAGGAGUAGCCUGCAGAAGCCAAGGCCUUUCAGACUGUUCCCCAAAGGCUUUUCUGUGGAGCUUUGCCAACAGAGGAUUGAGCAUCA
B9: ENSG00000124766:be:win_1851|3pUTR|ENSG00000124766|bound_else_gene|NA|bound_elsewhere_windowed (ssRNA)
RNA: GGGAGUUCUACAGUCCGACGAUCAGAGACUUGAAGGAGUCUCCCCCUUCCUGCAUCACCACCUUGGUUUUGUUUUAUUUUGCUUCUUGGUCAAGAAAGGAGGGGAGAACCCAGCGCACCCCUCCCCCCCUUUUUUUAAACGCGCAACAGAGGAUUGAGCAUCA
B10: chr1:66363429:66363538:+|CDS|ENSG00000184588|unk|total|mutant (ssRNA)
RNA: GGGAGUUCUACAGUCCGACGAUCAGACCUCCUAAAGACAUUCAGAAUCUCAUCUGACACAUUUAUAACCUACAUGAUGACUUCCGAAGACCAUUACCAUUCUGACGUGGCAUAUCACAACAGCCUGCACGCUGCUGAUGCCGCCAACAGAGGAUUGAGCAUCA
B11: chr1:42696720:42696786:+|CDS|ENSG00000065978|msi1_unk|FALSE|overlapping (ssRNA)
RNA: GGGAGUUCUACAGUCCGACGAUCCCAGUUCAAGGCAGUAAAUAUGCAGCAGACCGUAACCAUUAUAGACGCUAUCCACGUCGUAGGGGUCCUCCACGCAAUUACCAGCAAAAUUACCAGAAUAGUGAGAGUGGGGAAAAGAACCAACAGAGGAUUGAGCAUCA
B12: chr2:96252317:96252350:-|3pUTR|ENSG00000135956|msi1_unk|total|mutant (ssRNA)
RNA: GGGAGUUCUACAGUCCGACGAUCGUGUCCCCUGCUGAGCUGAAAAGGAAAUGGAUUCCAAUCUCUUCCAACCUUUAAGGUGACCGACCGUUUGAGCAAGACUGGAGAAUGGACAACACUAUGAAGCUGUGGCCCGAAAGGGACCAACAGAGGAUUGAGCAUCA
B13: chrX:56565067:56565173:+|CDS|ENSG00000188021|unk|FALSE|unique (ssRNA)
RNA: GGGAGUUCUACAGUCCGACGAUCAGAAGCAUGAUGCAGUCGCUGAGCCAGAAUCCAGAUUUGGCUGCACAGAUGAUGCUGAAUAGCCCGCUGUUUACUGCAAAUCCUCAGCUGCAGGAGCAGAUGCGGCCACAGCUCCCAGCCCAACAGAGGAUUGAGCAUCA
B14: chr14:55188946:55189174:-|CDS|ENSG00000126787|unk|FALSE|unique (ssRNA)
RNA: GGGAGUUCUACAGUCCGACGAUCAUUGCUCAUAGGAAAUCACUGUCUCAGAAAGAAAAUAGACAUAAGGAAUACGAACGAAAUAGACACUUUGGUUUGAAAGAUGUAAACAUUCCAACCUUGGAAGGUAGAAUUCUUGUUGAACAACAGAGGAUUGAGCAUCA
B15: chr6:43186014:43186115:+|CDS|ENSG00000112659|msi1|FALSE|unique (ssRNA)
RNA: GGGAGUUCUACAGUCCGACGAUCCUGCUUUUCUCCUUGGUGAAGCGCUACCUUUGUGUCACGUCCCUCCUGGAUCAGCUGAAUAGCAGUCCAGAGCUGGGAGCUGGAGACCAAAGCUCCCCAUGUGCCACAAGAGAGAAAAGCCAACAGAGGAUUGAGCAUCA
B16: chr22:36489384:36489485:-|3pUTR|ENSG00000100350|msi1|total|mutant (ssRNA)
RNA: GGGAGUUCUACAGUCCGACGAUCGUGUCACUUGCCACACACUGCCUCAACCUCCCCGCCCCAUUUUCAGCAGGGUUUGGGCUCCGCUACAGAGCCCAAGAGGGUCAGCCCUGCUUAUCAUCACCGGCCCAGCAGGCUGAUCUCCAACAGAGGAUUGAGCAUCA
B17: chr11:46743636:46743700:-|3pUTR|ENSG00000175216|msi1_unk|total|mutant (ssRNA)
RNA: GGGAGUUCUACAGUCCGACGAUCUUGUAAAAUUGUCCUAAUCUUUCCCCGCUUUUUAACCGUUAAUAUCCGAAACUCUUUAACCGUUUUCCUUUCAGUUUGUGAGCUCUUCUCUGUCGCCCUGAAGGGUCACUGUAUUCUGUACAACAGAGGAUUGAGCAUCA
B18: chrX:12823584:12823685:+|3pUTR|ENSG00000101911|unk|FALSE|unique (ssRNA)
RNA: GGGAGUUCUACAGUCCGACGAUCUGACUUAAAGGUAAUCAUUUCAGCUAAGAUUAAAUUUAAAGCCUAAGAAUGUAUAGAGCUAGUUUUAAAAUAAUGAUCUCAGAUUUUUAAAAAGGAUAUAGGAACCUGCAUUGUCAUUCUCAACAGAGGAUUGAGCAUCA
B19: chr1:228098150:228098251:+|3pUTR|ENSG00000143761|msi1_unk|FALSE|overlapping (ssRNA)
RNA: GGGAGUUCUACAGUCCGACGAUCGCACCGUGCUGUAAAUGUGGCAGACGCAGCCUGCGGCCAGGCUUUUUAUUUAAUGUAAAUAGUUUUUGUUUCCAAUGAGGCAGUUUCUGGUACUCCUAUGCAAUAUUACUCAGCUUUUUUCAACAGAGGAUUGAGCAUCA
B20: chr13:52475664:52475769:+|3pUTR|ENSG00000136108|msi1|total|mutant (ssRNA)
RNA: GGGAGUUCUACAGUCCGACGAUCGCGUCCCUUGGACUGCCUGUUGAUUGAUGGAAAGUGUCUGCACUGACACUUUUCGUCAGCCGUCUGCCGUUUCGUGGCCUCUUUUGAUUAUAACUGGGGUCACCAAGAAGGUUUACUUAACAACAGAGGAUUGAGCAUCA
B21: chr12:122271799:122271900:-|3pUTR|ENSG00000130779|msi1|total|mutant (ssRNA)
RNA: GGGAGUUCUACAGUCCGACGAUCGUAUAAAACACCUAAAUAACCAAUCUACAAUCUCCCUUCACAAGUUUUUUUACUGUUUUCCGAUGAAUGUACGAUGAGAAAUUCAACGUUAAUAAUUCUGGAUUUUCUUAUCACAAAAAACAACAGAGGAUUGAGCAUCA
B22: chr15:65058426:65058617:-|CDS|ENSG00000103710|control|control|control (ssRNA)
RNA: GGGAGUUCUACAGUCCGACGAUCCUGAACUGGGCCCAUGCCUUCCUGGUGGUGUACAGCGUCGACAGCCGCCAGAGCUUUGAUAGCAGCAGCAGCUACCUGGAGCUGCUUGCCUUGCACGCGAAGGAGACACAGCGCAGCAUCCAACAGAGGAUUGAGCAUCA

The other results are listed elsewhere or left out.

In the experiment the target is T1, UNK ZnF1-6 (called full-length). Nature of the experiment: nsRBNS (natural sequence RNA bind-n-seq); RBNS binding buffer (assumed for nsRBNS): 25 mM Tris pH 7.5, 150 mM KCl, 3 mM MgCl2, 0.01% Triton X-100, 500 ug/ml BSA, 20 U/ml SUPERase-In, 4 C; UNK is unkempt and MSI1 is Musashi-1; names of the RNAs are library labels; protein concentration not given here; high values mean tight binding.
For B1, the binding signal stood at 0.518 enrichment R. As for B2, the figure is 0.371 enrichment R; as for B3, 0.637 enrichment R.

As to B4, the binding signal is 0.577 enrichment R.

As to B5, the binding signal came to 0.747 enrichment R. As for B6, the figure is 0.595 enrichment R; as for B7, 0.635 enrichment R; as for B8, 0.626 enrichment R.

B9 displayed a binding signal of 0.704 enrichment R.

With B10, the binding signal was found to be 0.532 enrichment R.

As to B11, the binding signal came out at 0.804 enrichment R.

Consider B12, for which the binding signal worked out at 0.731 enrichment R. As for B13, the figure is 0.515 enrichment R; as for B14, 0.752 enrichment R.

In the case of B15, the binding signal is 0.496 enrichment R. With B16, the binding signal came to 0.813 enrichment R.

B17 had a binding signal of 0.543 enrichment R. B18 yielded a binding signal of 0.863 enrichment R. As for B19, the figure is 1.39 enrichment R; as for B20, 0.342 enrichment R. With B21, the binding signal was 0.721 enrichment R. B22 came in with a binding signal of 0.597 enrichment R.

The values above are taken from PMC12136788.
